Whole data set: some 33,000 sequences, median “E-score (-0.5 to 0.5)” near -0.04, cut for the highest 2% near 0.36. The list shows a part of the results.
The sequences below were run against T1, Hmlalpha2 (UniProt P0CY09) (assay: PBM E-score (8-mer binding enrichment) (E-score (-0.5 to 0.5)); higher = stronger / more preferred TF binding; most listed sequences are background and not binding sites). Details: protein concentration: 200 nM; construct: GST-full length.
T1 sequence: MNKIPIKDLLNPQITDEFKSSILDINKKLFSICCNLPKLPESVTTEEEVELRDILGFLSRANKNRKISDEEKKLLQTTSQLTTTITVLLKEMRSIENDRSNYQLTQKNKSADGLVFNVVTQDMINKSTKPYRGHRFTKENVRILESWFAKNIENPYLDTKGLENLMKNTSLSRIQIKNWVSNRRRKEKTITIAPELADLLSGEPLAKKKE
Summary of the method: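 Yeast transcription factors carrying a GST tag, as full-length proteins or DNA-binding domains, were produced by PURExpress in vitro transcription/translation. About 100-200 nM protein was applied to universal all-10-mer Agilent arrays, double-stranded by primer extension on fresh or once-stripped slides. Bound protein was detected with fluorescent anti-GST, and scans were normalised with masliner. The Universal PBM Analysis Suite gave each ungapped eight-base word, pooled with its reverse complement, an E-score, a modified Wilcoxon-Mann-Whitney statistic.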

Row | Sequence | PBM E-score
1 | AACCTGCG | -0.0431
2 | TAACGGCA | -0.0141
3 | ACTCATGC | -0.132
4 | ACTCTTAA | -0.0136
5 | ACACTCAC | 0.108
6 | CCGAGTCG | -0.216
7 | ATAGACTA | 0.126
8 | CCCACTAC | 0.14
9 | AAGCAAGT | 0.0946
10 | CATCTACA | 0.338
11 | ATCCAAGC | -0.203
12 | GACTGGCC | -0.327
13 | CCACGTGC | -0.0212
14 | AAGACTAC | 0.0786
15 | GCATCAAA | 0.0226
16 | AGACGCAC | -0.0382
17 | AGATCCTA | -0.165
18 | GGCGGCTA | -0.119
19 | CCTCGCCA | -0.335
20 | TTCGAGAA | 0.0374
21 | CACCTTGA | -0.0745
22 | ACCCACGC | -0.0679
23 | CCACGTGG | -0.225
24 | GGGTCATA | -0.0564

Row | Sequence | PBM E-score
25 | AACACGGG | 0.387
26 | CCGTAAGC | -0.127
27 | ACAAATCC | -0.129
28 | GTGGTCGA | -0.156
29 | GAGGACTC | -0.258
30 | CCGTTTGC | -0.235
31 | AACTCCTA | -0.146
32 | AGATATTG | -0.137
33 | TATAAGCA | -0.028
34 | GTACCTGA | 0.101
35 | AAGCACTG | -0.0328
36 | CAAGGCAC | -0.149
37 | GTAGTTCA | 0.109
38 | CCCCGGGC | -0.306
39 | CTGTGGAC | -0.199
40 | ATGGAGCC | -0.208
41 | TAATGTGA | 0.19
42 | AGAAGTTG | -0.192
43 | AGTGGGGG | -0.391
44 | AATATGCT | 0.0361
45 | CGGCCATC | -0.289
46 | ACGAATCA | 0.172
47 | CAATCCTC | -0.132
48 | TGACGCAA | 0.06

Row | Sequence | PBM E-score
49 | AACTGCAT | 0.208
50 | CACCGGCG | -0.12
51 | AACCTGAT | 0.0152
52 | AATACTGT | 0.135
53 | AATATAAG | 0.166
54 | CCAGCTTA | 0.0756
55 | GGCAGAGA | -0.19
56 | GGATCGAC | -0.16
57 | ACCGTACG | -0.038
58 | ATTTGAAA | 0.106
59 | ACAACCCT | 0.124
60 | ACATCAAA | 0.0633
61 | CCAAAGGA | -0.0297
62 | AGAGATGC | -0.13
63 | ATGTCCAG | -0.112
64 | ATCCGGAT | -0.189
65 | ATCCGGTA | -0.0689
66 | AGAATTTC | -0.125
67 | ATGTACAG | 0.289
68 | GCTTATCC | -0.079
69 | CAATTCGA | -0.0422
70 | CGACGTAG | -0.0597
71 | CCAGGTAG | -0.145
72 | CAGTCCAC | -0.121

Row | Sequence | PBM E-score
73 | ATCAGGAT | -0.146
74 | CTTCAAAG | 0.0797
75 | ACCCTAGA | 0.0131
76 | CAGTTTTA | 0.0938
77 | ACTAAAGA | -0.0824
78 | AGTTACCC | 0.0542
79 | GCCAATGA | -0.222
80 | GACGCTGC | -0.0607
81 | CGTGAGGA | -0.199
82 | GGACCGCA | -0.158
83 | ACTCAACA | 0.342
84 | AGACGCAG | -0.0258
85 | CTTACCGC | -0.0699
86 | CTACCAAC | 0.205
87 | CACAGCCG | -0.041
88 | CTCAGAAC | 0.0524
89 | CCGTTAAA | 0.125
90 | AGTCCTTA | -0.129
91 | AACATCGA | 0.248
92 | ATCACAAA | 0.0688
93 | GCCAGGGA | -0.249
94 | CGGTTCAA | -0.133
